The other results are listed elsewhere or left out. These are noisy estimates, calculated here from bound and input reads.
target: T1, Pho4 (S. cerevisiae) (UniProt P07270); assay: relative binding free energy (BET-seq); higher = weaker binding; conditions: reference: library average
T1 sequence: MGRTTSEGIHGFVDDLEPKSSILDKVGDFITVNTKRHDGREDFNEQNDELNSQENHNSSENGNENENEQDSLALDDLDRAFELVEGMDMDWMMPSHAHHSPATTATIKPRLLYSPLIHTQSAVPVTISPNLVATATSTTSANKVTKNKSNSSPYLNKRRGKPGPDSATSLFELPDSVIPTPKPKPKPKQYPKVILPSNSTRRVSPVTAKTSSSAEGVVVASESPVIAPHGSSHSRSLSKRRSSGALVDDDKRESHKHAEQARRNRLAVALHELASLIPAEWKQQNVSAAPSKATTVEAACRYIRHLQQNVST

Sequence	relative binding free energy
TATTGCACGTGTGTTC	0.05 kcal/mol
GTGAGCACGTGAAGTT	0.41 kcal/mol
ATCATCACGTGAGTGG	0.36 kcal/mol
TGTTACACGTGTGGGA	0.07 kcal/mol
TGGAACACGTGTAAGG	0.23 kcal/mol
AGCTTCACGTGGGTGT	0.18 kcal/mol
TGAAGCACGTGTGAGT	0.11 kcal/mol
ATGGTCACGTGAACGG	0.24 kcal/mol
ATAAGCACGTGGTTCG	-0.19 kcal/mol
ATGATCACGTGAAAGG	0.33 kcal/mol
AATTACACGTGGTGGC	0.14 kcal/mol
CGATTCACGTGTTTAG	0.37 kcal/mol
GAATGCACGTGGGGTA	-0.05 kcal/mol
CTTTGCACGTGCAGTG	-0.03 kcal/mol
TATTTCACGTGTTAAA	0.4 kcal/mol
AGGGGCACGTGGGCTC	-0.16 kcal/mol
ATATTCACGTGGGAGC	0.15 kcal/mol
AGGTGCACGTGAAGCG	0.12 kcal/mol
CTGTGCACGTGGACGT	-0.02 kcal/mol
GGTCGCACGTGGATTG	0.08 kcal/mol
ATGATCACGTGTCGGG	0.26 kcal/mol
GGTAGCACGTGTGGGT	0.05 kcal/mol
TTATTCACGTGTAGGG	0.24 kcal/mol
GCTTGCACGTGGTGGG	0 kcal/mol
CTAGTCACGTGTGATT	0.21 kcal/mol

Sequence	relative binding free energy
TGGAGCACGTGATCTT	0.1 kcal/mol
TGTTCCACGTGGGGCA	0.05 kcal/mol
GTTTCCACGTGGTATG	0.02 kcal/mol
ATGGGCACGTGCGGCG	-0.19 kcal/mol
TATAGCACGTGATTAT	0.08 kcal/mol
CGCTGCACGTGTGAGG	0.09 kcal/mol
TATATCACGTGACAGT	0.23 kcal/mol
GGGTACACGTGGTCGA	0.06 kcal/mol
AGAAGCACGTGTTGGT	-0.01 kcal/mol
TATTACACGTGCGGTA	-0.02 kcal/mol
TGGGACACGTGGATGG	0.07 kcal/mol
GGTTTCACGTGGGTGC	0.26 kcal/mol
GGGCTCACGTGTAATT	0.32 kcal/mol
AGGAGCACGTGAGGTT	0.27 kcal/mol
GTGGTCACGTGGGGTG	0.07 kcal/mol
TGGAGCACGTGATCGT	0.03 kcal/mol
GTTGTCACGTGTAGGG	0.13 kcal/mol
TGGAGCACGTGCATTT	-0.12 kcal/mol
GGCTGCACGTGATCTG	0.33 kcal/mol
TATCGCACGTGTAAGG	0 kcal/mol
ATCGGCACGTGCTGTG	-0.18 kcal/mol
AACTTCACGTGTATTT	0.24 kcal/mol
GTTTACACGTGTGAGA	0.05 kcal/mol
CGTTACACGTGGAGTG	0.03 kcal/mol
GTTCTCACGTGAGTTT	0.24 kcal/mol

Sequence	relative binding free energy
GGGTACACGTGTGTGT	0.09 kcal/mol
AACGTCACGTGCGGTG	0.12 kcal/mol
ATTTTCACGTGCGGGC	0.33 kcal/mol
GGGGACACGTGGCTGT	-0.21 kcal/mol
GATTTCACGTGCTATG	0.17 kcal/mol
TTCAGCACGTGAAGTT	0.24 kcal/mol
AGGTGCACGTGCGGCT	-0.21 kcal/mol
GAGTCCACGTGTTTGT	0.22 kcal/mol
ATTAACACGTGGTAGC	0.02 kcal/mol
GGTCTCACGTGTGCGG	0.37 kcal/mol
TTTTACACGTGTCAAT	0.22 kcal/mol
TTGGCCACGTGGTTTG	0 kcal/mol
GTTGACACGTGAGGTT	0.26 kcal/mol
GCATTCACGTGGGTGA	0.17 kcal/mol
ATGGCCACGTGTCGGG	-0.16 kcal/mol
TGCGTCACGTGTGTAC	0.06 kcal/mol
CAGGGCACGTGGAGTC	-0.03 kcal/mol
GGTTACACGTGCTGGG	0.2 kcal/mol
AAACTCACGTGTGTTG	0.23 kcal/mol
GGTTACACGTGGATCG	0.34 kcal/mol
CGGCGCACGTGTAGGT	0.03 kcal/mol
ATGGCCACGTGAAGTT	0.14 kcal/mol
TGGTGCACGTGAAGCA	0.23 kcal/mol
ATAGTCACGTGTTGGT	0.01 kcal/mol
TGTGACACGTGGTCAG	-0.07 kcal/mol

Sequence	relative binding free energy
TTAATCACGTGAGCGA	0.37 kcal/mol
CATGTCACGTGGAGAT	0.14 kcal/mol
AGGTTCACGTGGTGAT	0.16 kcal/mol
AGTTACACGTGGGTGC	-0.17 kcal/mol
GTAAGCACGTGGTTGA	-0.18 kcal/mol
AATTGCACGTGCTTTT	-0.09 kcal/mol
ATGGGCACGTGAGTGT	0.12 kcal/mol
CCTGGCACGTGAGGGG	0.1 kcal/mol
AGTGTCACGTGTACTT	0.18 kcal/mol
TGCATCACGTGTCGTG	0.11 kcal/mol
ATCATCACGTGGGTGG	0.11 kcal/mol
GTTGTCACGTGTTACG	0.19 kcal/mol
ATAGTCACGTGCGGGC	0.12 kcal/mol
GAAATCACGTGAGGTG	0.2 kcal/mol
GTTGGCACGTGTTAGT	0.05 kcal/mol
GTTAGCACGTGTATGC	0.09 kcal/mol
CTGGGCACGTGCGTTT	-0.13 kcal/mol
ATGGTCACGTGCCGTG	0.05 kcal/mol
GGCTACACGTGCGGGG	-0.08 kcal/mol
GATTGCACGTGGGCTA	0.03 kcal/mol
TTAAGCACGTGGAGTA	-0.14 kcal/mol
AGGTTCACGTGGGTCA	-0.04 kcal/mol
AGTTGCACGTGGCCGG	-0.08 kcal/mol
AGTGTCACGTGGCCGT	-0.02 kcal/mol
TTATGCACGTGTGCGC	0.03 kcal/mol

Sequence	relative binding free energy
CGGTGCACGTGTTATA	-0.16 kcal/mol
AGACACACGTGCGGGG	0.11 kcal/mol
TTCGTCACGTGATGGT	0.24 kcal/mol
GTGAGCACGTGAGAGC	0.27 kcal/mol
GTTGCCACGTGGCTTG	-0.1 kcal/mol
TGTTCCACGTGCATTT	0.11 kcal/mol
TGCTACACGTGGTGTT	-0.01 kcal/mol
TGTTCCACGTGTGCTT	-0.05 kcal/mol
TTGGCCACGTGTGGTA	0 kcal/mol
GGTTGCACGTGAATAG	0.23 kcal/mol
TTGGGCACGTGATTGG	0.09 kcal/mol
TGGCACACGTGAAGGT	0.25 kcal/mol
TGCCGCACGTGGGGCT	-0.17 kcal/mol
TATATCACGTGCAGTT	0.14 kcal/mol
TGGGTCACGTGTCACG	0.14 kcal/mol
TAGTTCACGTGGTCTA	0.19 kcal/mol
ATGGCCACGTGTTAGA	-0.03 kcal/mol
AGGATCACGTGGTTAG	0.18 kcal/mol
CGGGTCACGTGTTGGG	0.14 kcal/mol
TGCTTCACGTGCAGGG	0.28 kcal/mol
ATAGTCACGTGGATTA	0.14 kcal/mol
GATGGCACGTGGGGTT	-0.12 kcal/mol
CGTGGCACGTGGTCTA	-0.29 kcal/mol
GATTTCACGTGTTGAG	0.39 kcal/mol
TAGAACACGTGGGGTT	-0.11 kcal/mol

Sequence	relative binding free energy
AGTGACACGTGCGATT	-0.06 kcal/mol
ATTTCCACGTGGATGT	0.05 kcal/mol
GTTTTCACGTGCTTGG	0.19 kcal/mol
CTGGACACGTGCGGGG	-0.08 kcal/mol
TGTTCCACGTGCATGG	-0.03 kcal/mol
GAATACACGTGAAGGG	0.47 kcal/mol
TACTGCACGTGATTTG	0.12 kcal/mol
GTTGACACGTGAGCTG	0.17 kcal/mol
GTACTCACGTGGGGAG	0.13 kcal/mol
TTTAACACGTGAGGGA	0.32 kcal/mol
TCGTGCACGTGCGGGC	-0.07 kcal/mol
TTATTCACGTGGTGTG	0.28 kcal/mol
GTGCTCACGTGGTGAT	0.21 kcal/mol
TATGGCACGTGGTGCT	-0.35 kcal/mol
TGTGCCACGTGAGTTT	0.08 kcal/mol
TTAAACACGTGTTAGA	0.01 kcal/mol
TCTAGCACGTGGGGAA	-0.24 kcal/mol
TGTAGCACGTGGTTTA	-0.22 kcal/mol
TGCGTCACGTGGCTTT	0.08 kcal/mol
TTGTGCACGTGCGGGG	0 kcal/mol
TTGAGCACGTGACGGT	0.1 kcal/mol
